The % Inhibition is the drop in the measured response relative to a control, in per cent.

Molecules are shown by their SMILES. About 540 (0.36%) of roughly 150,000 compounds showed an effect of 50% or more. The list shows a part of the results.

For this test, the system named is Plasmodium falciparum. Nature of the test: Primary screen in NF54 nanoGlo assay, in single point, at 2uM, 72h; a lower Z score goes with more inhibition. Format: functional, Erythrocyte. The conditions noted are these: timepoint 72 hour.
On to `Cc1noc(Cl)c1CC(=O)N1CCCC(C)(C)CC1`, for which the “% Inhibition” value came to 44% and the Z score is -6.85.

In the case of `CCC(=O)Nc1ccc(N2CCCN(C(=O)Nc3ccccc3F)CC2)c(C(=O)N2CCCCC2)c1`, the “% Inhibition” value was -7% and the Z score is reported as 1.05.

Regarding `COC(=O)c1ccc(C)c2c1N(Cc1nnn(C)n1)CCC2`, the “% Inhibition” value was -10% and the Z score is 1.35.

Turning to `Cc1nn(CC(=O)N2CCOC[C@@H]2CCO)cc1-c1ccccc1`, the “% Inhibition” value is recorded as -7% and the Z score was determined as 1.14.

With `CCCN(CC1CC1)C(=O)c1cnn(-c2ncc(C)c(-c3cccs3)n2)c1C`, the “% Inhibition” value amounted to 4% and the Z score is -0.43.

For the compound `C[C@@H](c1ccc(Cl)cc1)N(C(=O)c1ccc(C(N)=O)cn1)C1CC1`, the “% Inhibition” value worked out at 6% and the Z score is recorded as -1.15.

Turning to `Cc1oc2c(c1C(=O)NC1CCCCC1)CN(Cc1ccccc1)CC2`, the “% Inhibition” value is -9% and the Z score is listed as 0.9.

As to `O=S(=O)(c1ccc2c(c1)OCCO2)N1CCO[C@H](c2ccc(F)cc2)C1`, the “% Inhibition” value came out at 33% and the Z score is reported as -4.39.

Turning to `O=C(NCC1CCN(c2cc(-c3cccnc3)n[nH]2)CC1)c1ccncc1`, the “% Inhibition” value is -12% and the Z score is recorded as 1.18.

`c1cnc2cc(-c3noc(C4CCCCCC4)n3)ccc2n1`: the “% Inhibition” value is -14% and the Z score amounted to 2.33.

`Cc1nn(C)c2[nH]nc(NC(=O)c3ccccn3)c12`: the “% Inhibition” value is on record as -14% and the Z score is listed as 1.96.

For the compound `Cc1c(C#N)c(NC(=O)CN2CCCCCC2)n(C[C@H]2CCCO2)c1C`, the “% Inhibition” value is given as -9% and the Z score is given as 1.77.

Turning to `O=C(Nc1ccn(-c2ccccc2)n1)NC1CC1c1cccc(Cl)c1` (centres undefined), the “% Inhibition” value is listed as -11% and the Z score is listed as 1.42.

Take `O=C(C1CCCC1)N1CCC[C@@H]1CCc1noc(C2CC2)n1`: the “% Inhibition” value is recorded as -8% and the Z score stood at 1.37.

Turning to `CN1CCN(C(=O)c2cccc(S(=O)(=O)N3CCC[C@H]3CO)c2)CC1=O`, the “% Inhibition” value is recorded as -5% and the Z score came to 0.48.

`O=C(Nc1ccccc1)C1CCN(C(=O)c2cnn(-c3ccccc3)c2)CC1`: the “% Inhibition” value was -14% and the Z score was 1.77.

Take `COCCn1c(CO)nnc1[C@H]1C[C@@H](Nc2cc(C)c(C#N)c(C)n2)C1`: the “% Inhibition” value is on record as -13% and the Z score is listed as 1.41.

Regarding `c1ccc(-n2nnnc2-c2ccc(-c3nnnn3-c3ccccc3)cc2)cc1`, the “% Inhibition” value was -5% and the Z score came out at 0.96.

As to `COC[C@@H]1CCCN1C(=O)N[C@H]1CCCc2ccccc21`, the “% Inhibition” value is on record as -4% and the Z score turned out to be 0.72.

Take `CC(NCC(=O)NCC1CCS(=O)(=O)C1)c1cccc(Cl)c1` (centres undefined): the “% Inhibition” value turned out to be 3% and the Z score is -0.44.

Regarding `CCN(Cc1nc2ccccc2c(=O)[nH]1)C1CCN(Cc2ccccc2)CC1`, the “% Inhibition” value is listed as -1% and the Z score came to 0.13.

For the compound `COc1cc([C@H]2CC(=O)Nc3[nH]nc(C)c32)ccc1OCc1ccccc1C`, the “% Inhibition” value was 2% and the Z score is -0.37.

With `CN(C[C@H]1CCN(C)C1(C)C)C(=O)Cc1cccc(O)c1`, the “% Inhibition” value was -1% and the Z score was 0.21.

With `Cc1ccc2c(c1)c1c(n2C[C@@H](O)Cn2ccnc2C)C(=O)CCC1`, the “% Inhibition” value is listed as 14% and the Z score is recorded as -2.43.

As to `Cc1cc(N(C)C)n2nc(CN3CCC(Cc4ccccc4)CC3)nc2n1`, the “% Inhibition” value is -10% and the Z score is reported as 1.3.

`CC(C)c1csc([C@@H](C#N)C(=O)C2CCOCC2)n1`: the “% Inhibition” value is reported as -14% and the Z score is 2.69.

For `COc1ccc(OC)c(S(=O)(=O)Nc2ccc(S(=O)(=O)N3CCCC[C@@H]3C)cc2)c1`, the “% Inhibition” value was found to be 0% and the Z score is listed as -0.02.

For the compound `O=C(CC1=CCCCC1)NC1CCN(c2[nH]cnc3ncnc2-3)CC1`, the “% Inhibition” value is -6% and the Z score is 0.84.

For the compound `CC=C(C)C(=O)N1CCOC[C@@]1(CO)CNC(=O)OC(C)(C)C`, the “% Inhibition” value was -17% and the Z score turned out to be 2.27.

In the case of `Cc1nc(C(=O)NCC2(N3CCCCC3)CCOCC2)c(C)s1`, the “% Inhibition” value is reported as -6% and the Z score is reported as 0.95.

As for `CN1c2cc(F)ccc2C(=O)NC12CCN(C(=O)NCc1ccccc1)CC2`, the “% Inhibition” value was -12% and the Z score was determined as 1.49.

Take `Cc1nc[nH]c1C(=O)NC[C@H]1CCCN(Cc2ccoc2)C1`: the “% Inhibition” value was -4% and the Z score worked out at 0.41.

Consider `COc1ccc([C@H](C)NC(=O)C(N)=O)cc1`, for which the “% Inhibition” value is on record as 1% and the Z score is -0.16.

Consider `Cc1cc(CCNC(=O)N2CC[C@]3(CCOC3)C2)cc(C)c1O`, for which the “% Inhibition” value is reported as 6% and the Z score is -1.12.

On to `Cc1cnn(C2CN(Cc3cc(=O)n(C)c(=O)n3C)C2)c1`, for which the “% Inhibition” value was -13% and the Z score is recorded as 1.75.

For the compound `C#CC[C@H](CC(F)(F)F)NC(=O)c1cnc2n1CCOC2`, the “% Inhibition” value is given as -8% and the Z score came out at 1.57.

In the case of `CCOC(=O)CC(=O)Nc1ccccc1C(N)=O`, the “% Inhibition” value is reported as -1% and the Z score is given as 0.19.

For `Cn1c(C(=O)NCCCN2CCN(c3ccccc3F)CC2)c(N2CCCC2=O)c2cc(F)ccc21`, the “% Inhibition” value is reported as 0% and the Z score turned out to be 0.01.

With `Cc1cccc(N2CCN(C(=O)c3nc4cccnc4n(CC(C)C)c3=O)CC2)c1C`, the “% Inhibition” value was -8% and the Z score was determined as 0.85.

As to `O=S(=O)(NCC12CCCN1CCC2)c1cccc2c1OCC2`, the “% Inhibition” value is given as -3% and the Z score amounted to 0.44.

For `CCn1cc(-c2ccc(C)cc2)cc1C(=O)N1CCC[C@H](C)C1`, the “% Inhibition” value is recorded as -1% and the Z score is on record as 0.13.

For `O=C(c1ccc(OCc2ccccc2)nc1)N1CC[C@@H](O)C1`, the “% Inhibition” value is on record as -9% and the Z score is given as 0.91.

The record behind these values is ChEMBL document CHEMBL4888484, “Replenishing the malaria drug discovery pipeline: Screening and hit evaluation of the MMV Hit Generation Library 1 (HGL1) against asexual blood stage Plasmodium falciparum ,using a nano luciferase reporter read-out” (2022).
